Data: paper PMC4336329 (PLoS ONE, 2015)
Out of some 310,000 compounds screened, about 14,000 (4.5%) showed an effect of 50% or more. The effect is printed as a negative number. Some of the results follow.

Each compound was assayed against human ether-à-go-go-related gene (hERG) potassium channel (human, UniProt Q12809) (assay: primary screen, population patch clamp on CHO cells stably expressing hERG).
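Also: peak tail current of the secondary pulse compared with the same well before compound.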

human ether-à-go-go-related gene (hERG) potassium channel, sequence (Q12809 whole entry, looked up): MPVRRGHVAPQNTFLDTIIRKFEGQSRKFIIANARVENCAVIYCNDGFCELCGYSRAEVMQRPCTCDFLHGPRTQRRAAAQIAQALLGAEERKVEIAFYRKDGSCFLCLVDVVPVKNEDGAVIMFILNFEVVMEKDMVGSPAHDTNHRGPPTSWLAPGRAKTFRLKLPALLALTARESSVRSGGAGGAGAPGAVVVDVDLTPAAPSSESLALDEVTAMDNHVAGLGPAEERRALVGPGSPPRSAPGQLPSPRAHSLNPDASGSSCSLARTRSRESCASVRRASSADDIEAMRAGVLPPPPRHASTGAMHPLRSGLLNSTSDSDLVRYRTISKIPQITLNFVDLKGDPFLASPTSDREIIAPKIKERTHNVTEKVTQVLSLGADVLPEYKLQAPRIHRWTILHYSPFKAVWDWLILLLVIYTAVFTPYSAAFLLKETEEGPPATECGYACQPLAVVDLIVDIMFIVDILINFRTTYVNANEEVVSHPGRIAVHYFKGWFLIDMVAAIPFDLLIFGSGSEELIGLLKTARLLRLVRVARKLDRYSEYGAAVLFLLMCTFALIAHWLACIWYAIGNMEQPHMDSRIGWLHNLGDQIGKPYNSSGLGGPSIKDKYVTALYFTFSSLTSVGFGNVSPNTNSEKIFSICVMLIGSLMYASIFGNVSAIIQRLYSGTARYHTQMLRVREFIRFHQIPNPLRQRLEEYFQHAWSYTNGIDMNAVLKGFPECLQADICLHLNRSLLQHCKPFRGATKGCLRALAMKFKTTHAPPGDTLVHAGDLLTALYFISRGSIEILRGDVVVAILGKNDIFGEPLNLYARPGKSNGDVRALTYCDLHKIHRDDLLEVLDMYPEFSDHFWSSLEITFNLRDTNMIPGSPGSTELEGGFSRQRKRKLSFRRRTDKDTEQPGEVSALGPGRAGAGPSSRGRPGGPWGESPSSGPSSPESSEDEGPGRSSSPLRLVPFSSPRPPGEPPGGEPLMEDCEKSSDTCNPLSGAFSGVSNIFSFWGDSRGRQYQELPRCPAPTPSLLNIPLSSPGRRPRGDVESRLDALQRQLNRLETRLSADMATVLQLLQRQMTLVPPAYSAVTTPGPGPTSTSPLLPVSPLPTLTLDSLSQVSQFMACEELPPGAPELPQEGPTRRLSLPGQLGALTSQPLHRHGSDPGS

| Compound | hERG current change (%, negative = inhibition) at 10uM [%] |
| --- | --- |
| CCc1cc(C(=O)N/N=C/c2ccc(O)cc2)c2ccccc2n1 | 21.4 |
| COc1ccc(NC(=O)C/C(C)=N/NC(=O)c2ccccn2)c(OC)c1 | 8.89 |
| CCOC(=O)c1c(NC(=O)c2cccc([N+](=O)[O-])c2C(=O)O)sc2c1CCCC2 | 14.8 |
| Fc1ccc(-c2csc3ncnc(N4CCc5ccccc5C4)c23)cc1 | 5.91 |
| Cc1ccc(/C=N/Nc2nnc(Cc3ccccc3)c(=O)[nH]2)o1 | 10.7 |
| Cc1cccc(OCC(=O)NNc2c3ccccc3nc3ccccc23)c1 | -5.54 |
| O=C(Nc1nc2ccccc2s1)c1c(F)cccc1Cl | 12.1 |
| CCOc1ccc(N2C(=O)CC(Sc3ccccc3C(=O)O)C2=O)c([N+](=O)[O-])c1 (stereo not shown) | 45.4 |
| Cc1cccc(NC(=O)CSc2nnc(-c3ccccc3Br)o2)c1C | 0.638 |
| O=C(CSc1ncc(C(=O)O)n1-c1ccc(F)cc1)NCc1ccc2c(c1)OCO2 | 35.8 |
| O=C(CN(C(=O)CCC(=O)Nc1ccccn1)c1cccc(F)c1)NCc1ccco1 | 12.3 |
| Cc1cc(C(C#N)c2ccc(Cl)cc2)c(Cl)cc1NC(=O)c1cc(I)cc(I)c1O (stereo not shown) | 8.79 |
| Cc1cccc(C)c1NC(=O)C(C)Sc1n[nH]c(-c2ccncc2)n1 (stereo not shown) | 10.7 |
| Cc1ccc(C)c(OCCn2cc(/C=C(\C#N)C(=O)NCC3CCCO3)c3ccccc32)c1 (stereo not shown) | 5.38 |
| Cc1ccc(-n2c([O-])nc(-[n+]3ccccc3)c2C=O)cc1 | 11.8 |
| Cc1ccc(CN2CCSc3ccc(C(=O)NCc4ccccn4)cc32)cc1 | -18.1 |
| COc1ccc(NC(=O)Cn2c(=O)n(CC3CCCO3)c(=O)c3cc(OC)c(OC)cc32)c(OC)c1 (stereo not shown) | -22.2 |
| COc1ccccc1OC(C)C(=O)N1CC(=O)Nc2ccccc21 (stereo not shown) | 15.8 |
| CSCCC(NS(=O)(=O)c1ccccc1F)C(=O)NCC(c1ccc(F)cc1)N1CCOCC1 (stereo not shown) | -1.67 |
| O=C(Nc1ccccc1Cl)N1CCN(c2ccc3nnc(-c4ccc(F)cc4)n3n2)CC1 | -42.1 |
| Cc1ccc(C(=O)NC(=S)NNC(=O)CC#N)cc1 | 19 |
| O=C(O)c1cccc(Cn2cc(Cl)cn2)c1 | 7.03 |

| Compound | hERG current change (%, negative = inhibition) at 10uM [%] |
| --- | --- |
| COCCN(C(=O)c1ccccc1)c1nc(-c2ccc(OC)cc2)cs1 | 28.5 |
| CC(C)NS(=O)(=O)c1ccc(OCC(=O)NC2CCCCCC2)cc1 | 8.11 |
| COc1ccc(-n2c(C)cc(C(=O)CN3C(=O)C(=O)N(Cc4ccccc4)C3=O)c2C)cc1 | 10.9 |
| Cc1ccccc1N1C(=O)CC(Sc2nnc(-c3ccccc3)o2)C1=O (stereo not shown) | -1.23 |
| CC12CC3CC(C)(C1)CC(C(=O)Nc1nncs1)(C3)C2 | 11.3 |
| CCN(CC)S(=O)(=O)c1ccc(NC(=O)Cn2c(=O)oc3ccccc32)cc1 | -10.7 |
| O=C(Nc1cccc(Cl)c1)OCc1cn(-c2ccccc2)nn1 | -52.6 |
| O=C(NCCC(=O)N1CCC2(CC1)NCCc1[nH]cnc12)c1cccc(C(F)(F)F)c1 | 17.1 |
| COc1ccc(S(=O)(=O)Nc2cc3c4c(c2)CC(=O)N4CCC3)cc1C | -4.48 |
| O=C(Nc1cc(S(=O)(=O)N2CCOCC2)ccc1O)c1ccco1 | 2.64 |
| Cc1cc2nc(C)c(=O)n(C)c2cc1C | 27.1 |
| COC(=O)COc1cccc2c(=O)n(CC(=O)NCc3ccc(F)cc3)ccc12 | 1.82 |
| O=C(O)C(=O)O.O=C(c1ccco1)N1CCN(Cc2ccc(Br)cc2)CC1 | -38.1 |
| CCOc1ccc(C2/C(=C(\O)c3c(C)[nH]c(C(=O)OC)c3C)C(=O)C(=O)N2CCN(C)C)cc1 (stereo not shown) | -7.42 |
| CCN(C(=O)C1CCCN1S(=O)(=O)c1ccc2c(c1)n(C)c(=O)c(=O)n2C)c1ccccc1 (stereo not shown) | -3.32 |
| Cc1cccc(NC(=O)c2cccnc2Cl)n1 | 19.8 |
| CCCc1nc2ccccc2c(C(=O)OCC(=O)NCc2ccc3c(c2)OCO3)c1CC | 0.444 |
| O=C(NCC1CCCN1S(=O)(=O)c1cccs1)c1cccc([N+](=O)[O-])c1 (stereo not shown) | -24.5 |
| COC(CNC(=O)C1CCN(S(=O)(=O)c2ccc3nc4c(c(C(=O)O)c3c2)CC(C)CC4)CC1)OC (stereo not shown) | 36.9 |
| CCOC(=O)Cn1c(CN(C)Cc2ccccc2)nc2c1c(=O)n(C)c(=O)n2C | -14.6 |
| Clc1ccc(C=NC23CN4CN(CN(C4)C2)C3)cc1 | 8.89 |
| CCc1ccc2oc(C(=O)Nc3nonc3C)c(C)c2c1 | 10.3 |

| Compound | hERG current change (%, negative = inhibition) at 10uM [%] |
| --- | --- |
| O=C(NC1CCN(S(=O)(=O)c2ccccc2)CC1)C1CCCCC1 | 0.841 |
| CCOC(=O)CSc1cc(CSc2ccccc2)nc(-c2ccccc2)n1 | 5.76 |
| Cc1cccc(CCNC(=O)Cc2ccc(NC3=NC4CS(=O)(=O)CC4S3)cc2)c1 (stereo not shown) | 3.2 |
| CCOC(=O)C1CCN(c2c(C(=O)c3ccccc3)cnc3ccc(Cl)cc23)CC1 | 8.07 |
| O=S(=O)(NCCc1csc(-c2cccnc2)n1)c1cccc(F)c1 | -15.2 |
| COc1ccc(C(c2sc3nc(C)nn3c2O)N2CCCCC2)cc1 (stereo not shown) | 12.3 |
| CCO.CCOC(=O)C1=C(C)Nc2sc(C(=O)c3ccc(OC)cc3)c(N)c2C1c1ccc(C(=O)OC)cc1 (stereo not shown) | 14.4 |
| O=C(O)C(=O)O.O=C(c1cccs1)N1CCN(Cc2cccnc2)CC1 | 1.56 |
| COc1cc([N+](=O)[O-])ccc1NC(=O)NNC(=O)C(C)Oc1ccc(F)cc1F (stereo not shown) | -9.58 |
| Cc1sc2ncnc(SCC(=O)N3CCOCC3)c2c1C | 13.8 |
| C=CCNCCOc1c(C)cc(C)cc1Cl.O=C(O)C(=O)O | -21.2 |
| Cc1ccccc1NC(=O)c1ccc(CN2CCC(Cc3ccccc3)CC2)cc1 | -52.2 |
| CCOc1cccc(-c2nnc3sc(-c4cccs4)nn23)c1 | -12.5 |
| CSc1ccccc1NC(=O)CCc1ccccc1 | 4.12 |
| Fc1ccc(-c2ccnc3nc(-n4cccc4)nn23)cc1 | -17.7 |
| CC1C(=O)CCCCCCCCCC2C1(N1CCOCC1)CS2(=O)=O (stereo not shown) | -4.39 |
| CCOC(=O)C1CCN(CC(=O)N(CC(C)C)c2c(N)n(CC(C)C)c(=O)[nH]c2=O)CC1 | 22.5 |
| O=C(Cc1ccccc1)NN1C(=O)C2C(C1=O)C1C=CC2C12CC2 (stereo not shown) | -6.85 |
| COc1ccc2oc(=O)c(C(=O)NCc3ccco3)cc2c1 | 8.73 |
| COc1ccc(-c2ccc(=O)n(Cc3c(F)cccc3Cl)n2)cc1 | 8.44 |
| Cc1cc(Nc2ccccc2)nc(N2CCOCC2)n1 | -6.34 |
| C/C=C(/C)C(=O)O[C@@H]1c2c(ccc3ccc(=O)oc23)O[C@@H]1C(C)(C)OC(C)=O | 6.16 |

| Compound | hERG current change (%, negative = inhibition) at 10uM [%] |
| --- | --- |
| CSCCC(NC(=O)C12CC3CC(CC(C3)C1)C2)C(=O)OCC(=O)c1ccc(C)cc1 (stereo not shown) | 43.8 |
| CCCCn1c(N)c(N(Cc2ccccc2OC)C(=O)C2=COCCO2)c(=O)[nH]c1=O | 19.7 |
| COc1ccc(NC(=O)c2cn(CCC#N)nc2-c2ccc([N+](=O)[O-])cc2)cc1 | 2.58 |
| Cc1cc(C)cc(NC(=O)C2CC3CCC2C3)c1 (stereo not shown) | 10 |
| COc1ccc(CNC(=O)CN2CCN(c3ccccc3)CC2)cc1 | 3.65 |
| Cc1ccc(S(=O)(=O)N(C)c2ccccc2C(=O)Nc2ccc(F)cc2F)cc1 | -3.62 |
| CCCc1cc(C(=O)Nc2ccc(F)cc2F)no1 | -4.51 |
| Cc1noc(-c2ccc(Cl)cc2)c1C(=O)O/N=C(\N)c1ccc(C(C)(C)C)cc1 | 2.54 |
| COC(=O)C1=C(O)/C(=C\c2ccc(CNS(=O)(=O)c3ccccc3)o2)N=C1C | 16 |
| CC(=O)C1=C(C)N(CC2CC2)C(=O)N[C@H]1c1ccccc1 | 19.6 |
| Cc1nn(-c2ccccc2)c(N2CCCC2)c1/C=N/NC(=O)c1ccccc1O | -2.88 |
| CC(C)CN(CCCNC(=O)CN1C(=O)COc2ccc(S(=O)(=O)N3CCC(C)CC3)cc21)CC(C)C | -2.94 |
| CCOc1cc(C(=O)OCC(=O)c2c(N)n(C)c(=O)n(C)c2=O)cc(OCC)c1OCC | -0.702 |
| COc1ccccc1N1CCN(c2nc(C)cc(C)c2C#N)CC1 | 12.3 |
| COc1ccc(C)cc1NC(=O)C1CCCN(S(=O)(=O)c2ccc(-n3cnnn3)cc2)C1 (stereo not shown) | -69.8 |
| Cc1ccc(CNC(=O)Cn2nnc3ccccc3c2=O)cc1 | 10.8 |
| COc1cccc(NC(=O)C2(S(=O)(=O)c3ccc(Cl)cc3)CC2)c1 | -15.9 |
| Cc1cccc(NC(=S)NC2CCCCC2)n1 | -7.19 |
| CN1CCN(c2nc(Cl)ncc2F)CC1 | -1.32 |
